According to article PMC12136788:
The other results are listed elsewhere or left out.

B1: chr1:39494564:39494565:+_ENSG00000168653_ENST00000372967|hu_hu|hu_hu_hu_mus_True|68_108 (ssRNA)
RNA: GGGAGUUCUACAGUCCGACGAUCAUGUGCACGUCUCAUCGUUUUGUACCGAAGCAAGCACUCUUCGAAAUCAUCAUACUCUAUCUUGCACUCCUUUUUCGCCCGGGUCCCACCGAUCCCGUGUGCACACUCUAUCCACUCUUUCAACAGAGGAUUGAGCAUCA
B2: 169404142_169417752_467_CDS_ENSG00000172292_ENST00000392687|human|control|control (ssRNA)
RNA: GGGAGUUCUACAGUCCGACGAUCAUCCCAGUCCAGUUGCUUGGAGAGGCCUUCCAAUCUCUUUUCAUCAGGAUGCUUUGUAAUUGCAGUGAAGACCUUUUCCAGAAUGGCAUUGGGCGGAGCAAUUUGUGGUCCAUUGGCCUGCAACAGAGGAUUGAGCAUCA
B3: chr4:48472932:48472933:-_ENSMUSG00000028345_ENSMUST00000030030|mus_mus|motif|central (ssRNA)
RNA: GGGAGUUCUACAGUCCGACGAUCGGUUGAAGCAUUUGCCAGCGAGACCAUGAUAUCAGACAGUGUUAAGUUCAGUAAAAGAUGAUCGGCAUUAUUGGAGAGAACUGUGCAAUGCUUGAUGCUUUUAUUUGUAUCUUUCUUCCGCAACAGAGGAUUGAGCAUCA
B4: chrX:140365796:140365797:-_ENSMUSG00000031285_ENSMUST00000033642|mus_mus|mus_mus_mus_hu_False|98_108 (ssRNA)
RNA: GGGAGUUCUACAGUCCGACGAUCCUUCUCAUUACUUAAUGCCUGCAAGGUUCUGGUUCGGUAGAAGCUACAGUGGGCGCUGUGAGUGGGGCUAGGCAACCCAUUCAUCCGGGAGCCUCGCAUGUUCCUGGAUGUCUUAUCUCUCAACAGAGGAUUGAGCAUCA
B5: 18916197_18916317_843_CDS_ENSMUSG00000020160_ENSMUST00000068264|mouse|control|control (ssRNA)
RNA: GGGAGUUCUACAGUCCGACGAUCCAUGGCGUUGGUGUGAGCUGUGUGCGGGUACUGAUGCGAGUGCAGAGGAGGCCCGUGGUUCAGGUGGUGGACCGGUUGCAUGGACCUGGCUGCAUGCGGGUCCCCAUACAUCGUGGAGGGCAACAGAGGAUUGAGCAUCA
B6: chr16:17389515:17389516:-_ENSMUSG00000041720_ENSMUST00000036161|mus_mus|FALSE|FALSE (ssRNA)
RNA: GGGAGUUCUACAGUCCGACGAUCUCAGAUUCAAUGAGAAAAAUGCCCAAUGCAAUCACUGCAUCUCUCCGUCUUUCAUCUAGUUGGAAGAUUCCAUGAAAAUCUACUGGGCACAUGCAAAGCAGCUUUUGAACCUGAGACAGGCAACAGAGGAUUGAGCAUCA
B7: chr17:73519777:73519778:+_ENSG00000182173_ENST00000333213|hu_mus|FALSE|FALSE (ssRNA)
RNA: GGGAGUUCUACAGUCCGACGAUCUUUGCCAGGGCUGUUUUUUCGGAACGUCGCCACAGCGUCAGCCUGGUAAACAUCGAAGCUGAUCUGCAAGCCUCCAGACUUCUCCAGCAGCCGGUAACCUCCAUCAGCAAGGUGUGUCGUCAACAGAGGAUUGAGCAUCA
B8: 44136230_44137174_737_CDS_ENSMUSG00000032123_ENSMUST00000054708|mouse|control|control (ssRNA)
RNA: GGGAGUUCUACAGUCCGACGAUCUAGUGACUGACCGGCCUCUAGGCCAUUAAUGCCCGCCAGGAUGUUGAUGGCAUUGGUACAGAACACUGCAAGCAGCCCCAUGUAGACGUAGUACAGGAUCCCCAAGUCCAAAUGCAGGCCCAACAGAGGAUUGAGCAUCA
B9: chr6:148129406:148129407:-_ENSMUSG00000030304_ENSMUST00000136008|mus_mus|FALSE|FALSE (ssRNA)
RNA: GGGAGUUCUACAGUCCGACGAUCCUAGGCUGCUUCAGACUUCAGUCUUGUAUGGACACUGCCUUGCCUGUCUCAGAUGUCCAGUUUUCCACUACUCAUAAGCAUACAACACUCAACUUUACCCUUCACAUCUUACAAACUGUUCAACAGAGGAUUGAGCAUCA
B10: chr10:33214929:33214930:-_ENSG00000150093_ENST00000302278|hu_hu|hu_hu_hu_mus_True|38_38 (ssRNA)
RNA: GGGAGUUCUACAGUCCGACGAUCAACAAGUUCAUUGAAAAACUCUCCUCUGUCAGUAAGACUAAGCACAUUUUUGUAGCUAAAUGGGCUGGUGCAGUUCUGUUCACUUGUACAAGGAUUUCUUAGCUUUGCUGGGGUUGUGCUCAACAGAGGAUUGAGCAUCA
B11: chr16:45737064:45737065:-_ENSMUSG00000033157_ENSMUST00000066983|mus_mus|motif|central (ssRNA)
RNA: GGGAGUUCUACAGUCCGACGAUCAAGUGCAUGAUAUUGUGUCACCAAUCCAUCUGCAGCAGUAGCUAUACCAAUAAGAGCGGUGACUUUUUCCGGCCGUGCAAUUGCAGCAUGCAGCAUGAGCCAUCCACCAAGACUGGAUCCCAACAGAGGAUUGAGCAUCA
B12: chr14:57521723:57521724:+_ENSMUSG00000021945_ENSMUST00000022511|mus_mus|FALSE|FALSE (ssRNA)
RNA: GGGAGUUCUACAGUCCGACGAUCUACAGGUUCAAUAAAAACAACGUCAUCAUCAUCUUCUACUGAUGAGUUCUGAAACUUACUAGAUCUAGACACUAAAGGAUUAGGUGGGCCACUAAAUGAAUUUCCUACGUUCGUGAGACUCAACAGAGGAUUGAGCAUCA
B13: chr4:184628046:184628047:+_ENSG00000168538_ENST00000334690|hu_mus|FALSE|FALSE (ssRNA)
RNA: GGGAGUUCUACAGUCCGACGAUCGAGGCCUGAGAACAUGAAGGCGUCACUGGGCUCCACAGAAAUCUCCACAUCUUGAACCAAGUCGGUCUUAUUCUGCAGGUGGUACCUGACGGGCAACGACUCUCUGACACGUCCAAACGACAACAGAGGAUUGAGCAUCA
B14: chr2:42509997:42509998:+_ENSG00000143924_ENST00000318522|hu_mus|hu_hu_hu_mus_True|58_68 (ssRNA)
RNA: GGGAGUUCUACAGUCCGACGAUCUCGCUGAGUCCUCUCCUCAUAAUUAAACAGGACUACCACUGAGGCAAUGAAAUAAACUAUUUUCCCUGUGGGAAGCAGGUAUACAUUCGCUCUACAGUCCUUUCCUCGAUAACCGUAUACCAACAGAGGAUUGAGCAUCA
B15: chr13:100200883:100200884:-_ENSMUSG00000052727_ENSMUST00000064762|mus_hu|FALSE|FALSE (ssRNA)
RNA: GGGAGUUCUACAGUCCGACGAUCGAUAUCAGAUUUUGGAGAGAGCUUCUCUCCUUCCAGACUUUGCACUUUUUCAGAGGUGAGUGAGGCAUAUAAGGACAUAUCUCUGGGAGGAGCAACAUCGGAUAGAGUAUCUUCUUGGAGCAACAGAGGAUUGAGCAUCA
B16: chr16:94690093:94690094:+_ENSMUSG00000040785_ENSMUST00000117648|mus_hu|mus_mus_mus_hu_True|88_88 (ssRNA)
RNA: GGGAGUUCUACAGUCCGACGAUCGGGCUGGGAUGACGGACACACAGAUCUUCCCAGAGGGGGAAAAAGUCUUAGUCGAUACUAAUUAAAAAGUGUUAAUGAUUUUUGAAAAUCAGAUUACAUCUAUAAAAGAUGAAAAGCAAACAACAGAGGAUUGAGCAUCA
B17: 107908216_107908336_2743_3pUTR_ENSMUSG00000034636_ENSMUST00000043616|mouse|control|control (ssRNA)
RNA: GGGAGUUCUACAGUCCGACGAUCUUUUUACAGAGCAAUAUAAAAUUACAUCGAGGUGGAGCUGAAGUCAAGUCAGCAGCCUUGCUCACCUGCAAGGAAGCCUGCGGAAGAGUGCGUGCAGCUUACCGUGAAACUGUAGAAUUUCAACAGAGGAUUGAGCAUCA
B18: chr3:176767854:176767855:-_ENSG00000177565_ENST00000430069|hu_hu|hu_hu_hu_mus_False|8_18 (ssRNA)
RNA: GGGAGUUCUACAGUCCGACGAUCGACAUCCUUGUUACUGGGCACGUCCUGCCCUCCUUCCCGUAUGCAGUGUCUAAGCACGAGCUGCGUAGGGCCACUCGUGCUGUUCUCACUGAGAUUCCAUAUUCUUGCUGUUGAGUCUCCCAACAGAGGAUUGAGCAUCA
B19: chr16:37883567:37883568:+_ENSMUSG00000034158_ENSMUST00000078717|mus_mus|FALSE|FALSE (ssRNA)
RNA: GGGAGUUCUACAGUCCGACGAUCUCGAUCCACACAGAGUACUUGCGCUCAGGAGGAGCAAUGAUCUUGAUCUUCAUGGUGCUAGGAGCCAGAGCAGUAAUCUCCUUCUGCAUCCUGUCAGCAAUGCCUGGGUACAUGGUGGUACAACAGAGGAUUGAGCAUCA
B20: chr17:65740002:65740003:+_ENSG00000130935_ENST00000581375|hu_hu|hu_hu_hu_mus_False|28_28 (ssRNA)
RNA: GGGAGUUCUACAGUCCGACGAUCAACAAAUCUUUCUUCCCUGGACGAACAGGAAGAUUCAUAUUAAAAAAAAUAUAUAUCCAUCAAGUUAGGUGUGGUGGCCACACAGAGCUCCAGAGCACUUUGGGAGGUGGAUCUCUGAGUCAACAGAGGAUUGAGCAUCA
B21: chr5:10264876:10264877:+_ENSG00000150753_ENST00000503026|hu_hu|FALSE|FALSE (ssRNA)
RNA: GGGAGUUCUACAGUCCGACGAUCAUAACUGUAGAUGCAUCACGAGACAUCCAUUUACUUAAUCACAGAAGUGGAUCUUGCUACAUAGUUUUCUCAAUGUCUUCAUUCUUCAGAUUCUCCAGGCUUACGAAUGUCAUCAAUCUUCAACAGAGGAUUGAGCAUCA
B22: 87705659_87706451_6146_CDS_ENSG00000163629_ENST00000511467|human|control|control (ssRNA)
RNA: GGGAGUUCUACAGUCCGACGAUCCAGCAGAGACUGGAUAACUUCAGCUUCUUGGGAAUCAUCAUAAAUGUCAUCUUCUUGUAUAUAAGAUUCUUUGGGCAGAGUCAAGUUUGGUGAUCCCUUUAUCUGAUAAGUAGAACAUUUCAACAGAGGAUUGAGCAUCA

target: T1, UNK ZnF1-3 (human, UniProt Q9C0B0 31-174); experiment: nsRBNS (natural sequence RNA bind-n-seq); RBNS binding buffer (assumed for nsRBNS): 25 mM Tris pH 7.5, 150 mM KCl, 3 mM MgCl2, 0.01% Triton X-100, 500 ug/ml BSA, 20 U/ml SUPERase-In, 4 C; UNK is unkempt and MSI1 is Musashi-1; names of the RNAs are library labels; protein concentration not given here; high values mean tight binding
T1 sequence: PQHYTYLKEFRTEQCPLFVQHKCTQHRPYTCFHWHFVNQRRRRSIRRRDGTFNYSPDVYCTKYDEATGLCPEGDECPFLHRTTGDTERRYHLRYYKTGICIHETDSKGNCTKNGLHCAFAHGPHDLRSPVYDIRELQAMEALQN

Binder	binding signal [enrichment R]
B1	0.67
B2	0.773
B3	1.24
B4	0.659
B5	1.01
B6	0.573
B7	0.804
B8	1.02
B9	0.833
B10	0.805
B11	1.25
B12	0.722
B13	1.21
B14	1.53
B15	2.15
B16	1.76
B17	1.06
B18	0.386
B19	1.11
B20	2.02
B21	0.76
B22	0.985
